Laboratory results reported in PubChem BioAssay AID1030 (National Center for Advancing Translational Sciences (NCATS), 2008).
Among all 220,000 compounds or so, about 16,000 (7.3%) were called active. The inconclusive results got no clear call from the source; some entries with a clear call stand among them for comparison. The call rests on the fitted dose curve; in most records, active means well fitted inhibition curve with a large enough effect (not every such curve was filed as active); inconclusive means small, poorly fitted or top-dose-only effect, or another doubt; inactive means no such curve, though single readings can be large or run the other way. Potencies of inconclusive entries are left out as doubtful fits.

target: Aldehyde dehydrogenase 1A1 (Homo sapiens) (UniProt P00352); test: qHTS Assay for Inhibitors of Aldehyde Dehydrogenase 1 (ALDH1A1); conditions: Purified ALDH1A1, NADH fluorescence, propionaldehyde substrate; series mostly up to 75.3 µM; activity, negative = inhibition: at the top concentration;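 on activity, negative = inhibition: plate controls were no enzyme wells and a reference inhibitor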
Potency means the concentration at half of the fitted maximal effect; tags describe the fitted curve by direction and shape.

Sequence of UniProt P00352 (P00352 whole entry, looked up): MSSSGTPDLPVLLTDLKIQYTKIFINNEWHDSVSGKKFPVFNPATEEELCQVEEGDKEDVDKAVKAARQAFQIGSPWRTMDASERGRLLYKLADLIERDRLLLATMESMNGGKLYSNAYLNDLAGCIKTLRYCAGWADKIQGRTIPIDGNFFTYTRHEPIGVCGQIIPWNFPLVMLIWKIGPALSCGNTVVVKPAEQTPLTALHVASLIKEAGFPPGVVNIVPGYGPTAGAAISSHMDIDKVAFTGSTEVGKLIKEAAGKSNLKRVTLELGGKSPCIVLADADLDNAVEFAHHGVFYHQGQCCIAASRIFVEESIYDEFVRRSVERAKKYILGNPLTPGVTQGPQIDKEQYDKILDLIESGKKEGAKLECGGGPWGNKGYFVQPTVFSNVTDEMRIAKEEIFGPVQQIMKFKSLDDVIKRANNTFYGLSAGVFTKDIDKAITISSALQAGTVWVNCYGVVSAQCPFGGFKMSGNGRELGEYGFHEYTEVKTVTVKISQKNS

| Structure (SMILES) | Potency | activity, negative = inhibition |
| --- | --- | --- |
| Cc1cc(C)c2cc(CN(CCN3CCCC3)C(=O)Nc3ccc(F)cc3)c(=O)[nH]c2c1 | inconclusive [inhibitor, partial curve] |  |
| CCCCCCCCCCCCCC(=O)N[C@@H](C)[C@H](O)c1ccccc1 | inactive |  |
| COc1ccc(NC(=O)CC(C)(C)C)c([N+](=O)[O-])c1 |  | inactive: -0.301% |
| Cc1ccnc(NC(=O)CCC(=O)N(CC(=O)NC(C)(C)C)c2ccc(F)c(Cl)c2)c1 |  | inactive: 6.8% |
| O=C(Nc1cccc(-c2cn3ccccc3n2)c1)c1cccs1 | inconclusive [inhibitor, partial curve, poor fit] |  |
| CCOC(=O)C(=O)Nc1ccccc1C(=O)Nc1ccc(OC)cc1 | inconclusive [inhibitor, partial curve] |  |
| CCNc1ccc(Br)cc(C(=O)/C=C/c2c(Cl)cccc2Cl)c1=O | active: 7.94 µM |  |
| Cc1[nH]c(=O)[nH]c(=O)c1/C=N/NC(=O)[C@H](CC(C)C)NC(=O)OC(C)(C)C |  | inactive: 6.03% |
| Cc1ccc(CSC2=NCCN2C(=O)c2ccc(S(=O)(=O)N(C)C)cc2)cc1 | inconclusive [inhibitor, partial curve] |  |
| O=C(NC(=S)Nc1ccc(N2CCCCC2)c(Cl)c1)c1ccc2c(c1)OCCO2 | active: 10 µM |  |
| O=C(N/N=C\c1ccc2c(c1)CCC2)c1ccccc1O |  | inactive: 2.29% [at 13.5 µM] |
| Cc1c(Cl)c([N+](=O)[O-])nn1CC(=O)N1CCc2ccccc2C1 | inconclusive [inhibitor, single point] |  |
| COCCn1c(=O)c(-c2cccc(C#N)c2)nc2cnc(N3CCOCC3)nc21 | inconclusive [inhibitor, partial curve] |  |
| N/C(=N\OC(=O)Nc1ccccc1)c1ncc(C(F)(F)F)cc1Cl | inconclusive [inhibitor, single point] |  |
| Cc1cc(C(=O)N/N=C/c2ccc(N3CCOCC3)cc2)c(C)o1 | inconclusive [inhibitor, partial curve] |  |
| O=c1c2ccccc2cnn1Cc1n[nH]c(=S)n1-c1ccccc1Cl | active: 31.6 µM |  |
| O=C(N/C=C/c1ccco1)Nc1cccc(Cl)c1 |  | inactive: -5.73% |
| Cc1ccc(C(c2nnnn2C(C)(C)C)N2CCc3ccccc3C2)cc1 (stereo unspecified) |  | inactive: 5.23% |
| CCc1cc(OCCN(C)C)ccc1Cl | inconclusive [inhibitor, partial curve] |  |
| CCOc1ccc(NC(=O)CN2CCN(CC(=O)Nc3cccc(F)c3)CC2)cc1 | active: 17.8 µM |  |
| CCCCCn1c(N)c(C#N)c2nc3ccccc3nc21 | inconclusive [inhibitor, partial curve] |  |
